According to the RNAGym collection of RNA variant scans (doi:10.1101/gad.245936.114):
This sample is rich in variants without activity.

B1: tRNA (parent)
chain: CUCUCGGUAGCCAAGUUGGUUUAAGGCGCAAGACUUUAAUUUAUCACUACGAAAUCUUGAGAUCGGGCGUUCGACUCGCCCCCGGGAGAUUUUUUCCUCGAGCAA

Variants of: B1
Experiment: nonsense suppression (GFP-seq) (ratio to wild type); higher = more function; SUP4oc tRNA, yeast GFP reporter sort-seq
Summary of the method: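 To measure nonsense suppression, tRNA variants from a library carrying ~3% random mutations were integrated into the yeast genome alongside RFP and a GFP ochre reporter under galactose control. Growth took place in raffinose/galactose medium supplemented with 80 mg/L adenine, followed by sorting into GFP/RFP bins and Illumina sequencing of each bin (phred ≥30). For each variant with ≥100 reads and ≥30 cells, the bin median GFP/RFP values were weighted by its estimated cell share per bin and referenced to the unmutated parent tRNA.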

Variant	nonsense suppression
CUCUCGAUAGCCAGGUUGGUUUAAGGCUCUAGACUUUAAUUUAUCACUACGAAAUCGUGAGAUCGGGCGUUCGACUCGCCCCCGGGAGAUUUUUUCCUCGAGCAA	≤ 0.026
CUCUCGAUAGCCAAGUUGGUUUGAGGCGUAAGACUUUAAUUUAUCACUACGAAAUCUUGAGAUCGGGCGUUCGACUCGCCCCCGGGGGAUUUUUUCCUCGAGCAA	≤ 0.026
CUCUCUGUAGCCAAGUUGGUUUAAGGCGCAAGACUUUAAUUUAUCACUACGAAAUCGUGAGAUCGGUCGUUUGACUCGCCCCCGGGAGAUUUUUUCCUCGAGCAA	≤ 0.026
CUCUCGAUAGCCAAGUUGGUUUACGGCGCAAGACUUUAAUUUAUCACUACGAAAUCUUGAGAUCGGGCGUUCGACUCGCCCCCGGGAGAUUUUUUCCUCGAGCAA	0.123
CUCUCGAUAGCCAAGUUGGUUUAAGGCGCAAGACUUUAAUUUAUCACUACGAAAUCUUGGGAUCGGGCGUUCGACUCGCCCCCGGGAGAUUUUUUCCUCGAGCAA	0.053
CUCUCGAUGGCCAAGUUGGUUUAAGGCGCAAGACUUUAAUUUAUCACUACGAAAUCUUGAGAUCGGGCGUUAGACACGCCCCCAGGAGAUUUUUUCCUCGAGCAA	≤ 0.026
CUCUCGAUCGCCAAGUUGGUUUAAGGCGCAAGACUUUAAUUUAUCACUACGAAGUCUUGAGAUCGGGCGUUCGACUCGCCCCCGGGAGAUUUUUUCCUCGAGCAA	≤ 0.026
CUCUCGAUAGCCCCGGUGGUUUAAGGCGCAAGAGUUUAAUUUAUCACUACGAACACUUGAGACCGGGCGUUCGACUCGCCCCCUGGAGAUUUUUUCCUCGAGCAA	≤ 0.026
CUCUCUGUAGCCAAGUUGGUUUAAGGCGCAAGACUUUAAUUUAUCACUACGAAAUCUUGAGACCGGGCGUUCGACUCGCCCCCGGGAGAUUUUUUCCUCGAGCAA	≤ 0.026
CUCUCGAUAGCCAAGUUGGUUUAUGGCGCAAGACUUUAAUUUAUCACUACGAAAUCUUGAGAUCGGGCGUUCGAUUCCCCCCCGGGAGAUUUUUUCCUCGAGCAA	≤ 0.026
CUCUCGAUGGCCAAGUUGGUUUAAGGCGCAAGACUUUAAUUUAUCACUACGAAAUCUUGAGAUCGGGCGUUCGACUCGCCCCCGGGAGAUUUUUUCCUCGAGCAA	≤ 0.026
CUCUCGAUUGCCAAAUUGGUUUAAGGCGCAAGAAUUUAAUUUAUCACUACGAAAUCUUGAGAUCGGGCGUUCGACUCGCCCCCGGGAGAUUUUUUCCUCGAGCAA	≤ 0.026
CUCUCUGUAGCCAAGUUGGUUUAAGGCGCAAGACUUUAAUUUAUCACUACGAAAUCUUGAGAUCGGGCGUUCGACCCGCCCCCGGGAGAUUUUUUCCUCGAGCAA	≤ 0.026
CUCUCGAUAGCCAAGUUGGUUUAAGGCGCAAGUCUUUAAUUUAUCACUACGAAAUCUUGAGAUCGGGCGUUCUACUCGCCCCCGGGAGAUUUUUUCCUCGAGCAA	≤ 0.026
CUCUCGAUAGCCGAGUUGGUUUAAGGCGCAAGACUUUAAUUUAUCACUACGAAAUCUUGAGAUCGGGCGUUCGCCUCGCCCCCGGGAAAUUUUUUCCUCGAGCAA	≤ 0.026
CUCUCGAUAGCCAAGUUGGUUUAAGGCGCAAGACUUUAAUUUAUCACUACGAACUCUUGAGAUCGGUCGUUCGACUCGCCCCCGGGAGAUUUUUUCCUCGAGCAA	≤ 0.026
CUCUCGAUAGCCAAGUUGGUUUUAGGCGCAAGACAUUAAUUUAUCACUACGAAAUCUUGAUAUCGGGCGUUCGACUCGGCCCCUGGAGAUUUUUUCCUCGAGCAA	≤ 0.026
CUCUCGAUAGCUAAGUUGGUUUAAGGCGCAAGACUUUAAUUUAUCACUACGAAAUCUUGAGAUAGGGCGUUCGAAUCGCCCCAGGGAGAUUUUUUCCUCGAGCAA	≤ 0.026
CUCUCGAUAGCCAAGUUGGUUUAAGGCGCAUGACUUUAAUUUAUCACUACGAAAUCUUGAGAUCGGGCGUCCGACUCGCCCCCGGGAGAUUUUUUCCUCGAGCAA	≤ 0.026
CUCUCGAUGGCCAAGUUGGUUUAAGGUGCAAGACUUUAAUUUAUCACUACGAAAUCUUGAGAUCGGGCGUUCGACUCGCCCCCGGGAGAUUUUUUCCUCGAGCAA	≤ 0.026
CUCUCGAUAGUCAAGUUGGUUUAAGGCGCAAGACUUUAAUUUAUCACUACGAAAUUUUGAGAUCGGGCGUUCGACUCGCCCCCGGGAGAUUUUUUCCUCGAGCAA	≤ 0.026
CUCUCGAUAGCCAAGUUGGUUUACGGCGCAAGACUUUAAUUUAUCACUACGAAAUCUUGAGAUCGGGCAUUCGACUCGCCCCCGGGAGAUUUUUUCCUCGAGCAA	≤ 0.026
CUCUCGAUAGCCAAGUUGGUUUACGGCGCAAGACUUUAAUUUAUCACUACGAAAGCUUGAGAUCGGGCUUUCGACUCGCCCCCGGGGGAUUUUUUCCUCGAGCAA	≤ 0.026
CUCUCGAUAGCCAAGUUGGUUUAAGGCGCAAGACUUUAAUUUAUCACUACGAAAUCUUGAGCUCGGGCGUUUGACUCGCCCCCGGGAGAUUUUUUCCUCGAGCAA	≤ 0.026
CUCUCGAUAGCCAAGUUGGUUUGAGGCGCAAGACUUUAAUUUAUCACUACGAAAUCUUGAGAUCGGGCGUUCGAAUCGCCCCCGGGAGAUUUUUUCCUCGAGCAA	≤ 0.026
CUCUCGAUAGCCAAGUUGGUUUAAGGCGCAAGUCUUUAAUUUAUCACUACGAAAUCUUGAGAUCGGGCGUUCGACUCGCCCCCGGGAGAUUUUUUCCUCGAGCAA	≤ 0.026
CUCUCGAUAGCCAAGUUGGUUUAAGGCGCAAGGCUUUAAUUUAUCACUACGAAAUCUUGAGAUCGGGCGUUCGACUCGCCCCCGGGAGAUUUUUUCCUCGAGCAA	≤ 0.026
